The source of these data is publication PMC6919601, “Identification of Plasmodium dipeptidyl aminopeptidase allosteric inhibitors by high throughput screening” (PLoS ONE, 2019).

Each structure is given as a SMILES string. Hit rate of the full screen: of about 110,000 compounds, about 230 (0.21%) showed an effect of 50% or more. Some of the results follow.
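Note: 30 min substrate incubation versus DMSO and 10 µM JCP410 controls.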

The target in the test is DPAP1 (Plasmodium falciparum, UniProt Q8IIJ9). The test is described as follows: primary screen, percent inhibition; read by cleavage of a fluorogenic dipeptide substrate; higher = more effect of the substance. Details: species or system P. falciparum D10 trophozoite lysates; single well.
DPAP1, sequence (Q8IIJ9 whole entry, looked up): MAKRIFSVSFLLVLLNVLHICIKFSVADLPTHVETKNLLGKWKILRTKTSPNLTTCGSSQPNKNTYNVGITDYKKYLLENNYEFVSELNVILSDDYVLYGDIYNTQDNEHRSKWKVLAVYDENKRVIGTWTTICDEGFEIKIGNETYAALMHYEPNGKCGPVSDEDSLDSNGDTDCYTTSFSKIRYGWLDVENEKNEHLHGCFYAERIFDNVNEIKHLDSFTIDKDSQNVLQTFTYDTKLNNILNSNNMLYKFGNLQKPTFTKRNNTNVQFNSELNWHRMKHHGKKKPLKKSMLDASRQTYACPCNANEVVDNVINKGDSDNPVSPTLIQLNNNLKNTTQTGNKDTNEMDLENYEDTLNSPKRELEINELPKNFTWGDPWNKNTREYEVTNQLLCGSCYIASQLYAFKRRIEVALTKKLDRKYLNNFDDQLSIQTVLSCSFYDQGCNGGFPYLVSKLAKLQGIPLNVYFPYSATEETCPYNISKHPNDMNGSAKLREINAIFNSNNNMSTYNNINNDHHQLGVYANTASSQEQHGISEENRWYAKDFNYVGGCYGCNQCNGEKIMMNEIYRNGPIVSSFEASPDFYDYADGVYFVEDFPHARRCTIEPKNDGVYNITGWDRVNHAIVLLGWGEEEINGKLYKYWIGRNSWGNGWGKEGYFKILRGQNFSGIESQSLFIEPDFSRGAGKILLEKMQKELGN
Turning to `CCOC(=O)c1c(N)n(-c2cc(C)ccc2C)c2nc3ccccc3nc12`, the “% Inhibition @ 10 uM” value was -1.6%. Take `N#Cc1cn(CC(=O)N2CCc3ccccc3C2)c2ccccc12`: the “% Inhibition @ 10 uM” value amounted to 0.777%. Regarding `CCOC(=O)N1CCN(C(=O)COCc2cc(-c3ccc4c(c3)OCO4)on2)CC1`, the “% Inhibition @ 10 uM” value was -1.04%. To `COC(OC)C(CCc1ccccc1)NC(=O)C(CC(C)C)NC(=O)OCc1ccccc1` (stereo not shown) belongs -5.64%.

As for `CC(=O)Nc1ccc(C(=O)N(Cc2ccccc2)C(C(=O)Nc2ccc(C)cc2)c2ccccn2)cc1` (stereo not shown), the “% Inhibition @ 10 uM” value is -5.14%. Consider `Cc1cc(-c2ccc([N+](=O)[O-])cc2)c(C#N)c(N)n1`, for which the “% Inhibition @ 10 uM” value is listed as -4.04%. `C=C(C)Cn1c(CNC(=O)c2ccc(Cl)cc2)nc2ccccc21`: the “% Inhibition @ 10 uM” value is given as -2.59%. `COc1ccc(S(=O)(=O)N2CCCN(CC(=O)C(C)(C)C)CC2)cc1`: the “% Inhibition @ 10 uM” value is -0.631%. As for `Clc1ccccc1-c1nn[nH]n1`, the figure is 3%; as for `O=C(CSc1nnc(-c2ccc(Cl)s2)o1)N1CCCCC1`, -3.41%; as for `COc1cccc(/C=C2\CCC3=C2OC(N)=C(C#N)C3c2cccc(OC)c2)c1` (stereo not shown), 5.59%. With `O=C(NCc1ccccc1Cl)c1cc(O)nc2ccc(S(=O)(=O)N3CCOCC3)cc12`, the “% Inhibition @ 10 uM” value came to 2.65%. As for `CCc1onc2cc3c(cc12)OCCO3`, the figure is 2.55%. To `N#CC1=C(N)Oc2c(c(O)nc3ccccc23)C1c1cccc2ccccc12` (stereo not shown) belongs 1.26%; to `COc1ccc(Cn2c(CCC(=O)NCc3ccc4c(c3)OCO4)nc3cccnc32)cc1`, -1.3%.

Turning to `Cn1c2ccccc2c2cnn(CC(=O)NCCCN3CCN(Cc4ccccc4)CC3)c(=O)c21`, the “% Inhibition @ 10 uM” value stood at 2.99%. To `COc1cccc(CNS(=O)(=O)c2c(C)nc3sccn3c2=O)c1` belongs -3.9%; to `Cc1ccc(S(=O)(=O)N2CC=C(C(=O)NC3CCC(C)CC3)CC2)cc1` (stereo not shown), -2.14%; to `Nc1ccc2nc(SCC(=O)N3CCCCC3)sc2c1`, -0.25%. To `CCCS(=O)(=O)NCCc1cc2ccc(C)c(C)c2nc1O` belongs 0.205%; to `CC1(C)CC2=NCC(=O)NC2=C(O)C1`, 59.8%. To `O=C(C1CCC(CNS(=O)(=O)c2cccs2)CC1)N1CCCCC1` (stereo not shown) belongs -3.21%; to `Cc1ccc(S(=O)(=O)c2nnn3c2nc(N(C)Cc2ccccc2)c2ccccc23)cc1`, 17%. Take `O=C(Nc1ccccc1C(F)(F)F)c1cc2ccccc2oc1=O`: the “% Inhibition @ 10 uM” value stood at 0.605%.

As for `Cc1ccc(CNC(=O)Nc2nnc(N(CC(C)C)CC(C)C)s2)cc1`, the “% Inhibition @ 10 uM” value was -2.85%.

Take `Cc1ccc(OCC(=O)Nc2ccc(S(=O)(=O)N3CCC(C)CC3)cc2)cc1`: the “% Inhibition @ 10 uM” value is -2.28%. With `COc1ccccc1NC(=S)NC(=O)c1ccccc1`, the “% Inhibition @ 10 uM” value is on record as 2.6%. As for `O=C(CCn1nc(-c2ccc(Cl)cc2)ccc1=O)NCCCN1CCCCC1`, the figure is -1.79%; as for `O=S(=O)(NCc1ccccc1Cl)c1ccc2[nH]c(-c3ccccc3)nc2c1`, 4.07%; as for `Clc1ccccc1CNc1cc(-c2ccccc2)nc2nncn12`, -0.808%.

With `CCCCC(=O)Nc1c2c(nn1-c1ccc(C)cc1)CS(=O)(=O)C2`, the “% Inhibition @ 10 uM” value is -2.54%. As for `CCOCCCNc1nc2ccccc2n2nnnc12`, the figure is -0.522%; as for `CCOC(=O)C1=C(C)NC(=O)N(C(=O)Cc2ccccc2)C1c1cccc(OC2CCCC2)c1` (stereo not shown), -1.24%.

With `CCOc1ccc(NC(=O)c2ccccc2NC(C)=O)cc1`, the “% Inhibition @ 10 uM” value amounted to 2.58%. For the compound `O=C1C2C3CCCN3C3(C(=O)c4ccccc4C3=O)C2C(=O)N1c1ccc(F)c(Cl)c1` (stereo not shown), the “% Inhibition @ 10 uM” value is reported as -0.992%.

For the compound `Clc1cccc(Cl)c1-c1nnc2ccc3ccccc3n12`, the “% Inhibition @ 10 uM” value was -0.267%. To `Cc1cccc(CCNS(=O)(=O)c2ccc(S(=O)(=O)N3CCOCC3)cc2)c1` belongs 8.37%; to `CCOc1ccc(C2CC(=O)N3CN(Cc4ccco4)CSC3=C2C#N)cc1` (stereo not shown), 43.4%. `Cc1ccn2c(-c3csc(Nc4ccc(N)cc4)n3)c(C)nc2c1`: the “% Inhibition @ 10 uM” value stood at 2.65%. As for `Cc1ccn2cc(-c3ccc(F)cc3)cc2c1`, the “% Inhibition @ 10 uM” value was -0.864%.

With `CCOc1cc(CN2CCN(C)CC2)ccc1O`, the “% Inhibition @ 10 uM” value was found to be 2.33%. As for `Cc1cccc(CCNc2nc3ccccc3c3nc(-c4cccnc4)nn23)c1`, the “% Inhibition @ 10 uM” value is listed as -2.42%.

As for `CC(=O)Nc1cc(Cl)c2oc(-c3ccc(Cl)cc3Cl)nc2c1`, the “% Inhibition @ 10 uM” value was -1.5%. To `Cc1ccc(Cn2ncc3c(NCCCN4CCOCC4)ncnc32)cc1` belongs -1.89%; to `O=C(CSc1ccc(Br)cc1)Nc1ccccc1N1CCOCC1`, 1.35%. As for `Cc1nc2nc(-c3ccc(Cl)cc3Cl)nn2c(C)c1CCC(=O)O`, the figure is -1.03%; as for `Cc1cc(Br)ccc1NC(=O)C1CC(=O)N(c2ccc(OC(C)C)cc2)C1` (stereo not shown), -4.14%. As to `CCCCSc1cc(C)nc2ncnn12`, the “% Inhibition @ 10 uM” value amounted to 0.906%.

`COc1cc(OC)cc(-c2nc(-c3ccccc3)no2)c1`: the “% Inhibition @ 10 uM” value is -3.77%. To `CCO/C(O)=C1\C(CC)=NC2=C(C(=O)CCC2)C1c1ccccc1OCC` (stereo not shown) belongs -2.87%; to `CC1CCN(C(=O)CSc2c3c(nc4ccccc24)CCC3)CC1`, -11%. To `c1coc(C2Nc3c(ccc4ccccc34)C3OCCC23)c1` (stereo not shown) belongs -5.96%; to `COc1ccc(-c2nc3ncnc(O)c3nc2-c2ccc(OC)cc2)cc1`, -1.29%; to `O=C(NCCc1ccccc1)C1=CCN(S(=O)(=O)c2ccccc2)CC1`, 5.09%. Consider `O=C1CCCC2=C1C(c1ccc(F)cc1)C1=C(CCCC1=O)O2`, for which the “% Inhibition @ 10 uM” value is reported as 1.64%. To `Cc1ccc(-c2nonc2NC(=O)CC(C)C)cc1` belongs -6.56%. As for `C=CCNC(=O)c1cc(-c2ccc(Cl)c(Cl)c2)on1`, the figure is -8.56%; as for `COc1cccc2c1cc1c(=O)n(CC(=O)NC(C)c3ccccc3)nc(C)n12` (stereo not shown), 4.84%. As for `COc1ccc(CN(Cc2ccco2)C(=O)COc2ccccc2C)cc1`, the figure is -2.84%; as for `CCOC(=O)c1c(/N=C/C2C(=O)NC(=O)NC2=O)sc2c1CCC2`, -5.01%. On to `COC(=O)c1c(C)cc(O)c(C)c1O`, for which the “% Inhibition @ 10 uM” value was -0.0404%. For `O=C(CNS(=O)(=O)c1ccc(Br)cc1)N1CCN(c2ccc(F)cc2)CC1`, the “% Inhibition @ 10 uM” value is given as 10.8%. For the compound `Oc1ccc(NCc2cccc(Br)c2)cc1`, the “% Inhibition @ 10 uM” value was determined as 3.05%. To `COc1ccc(-c2nc3cc(N)ccc3o2)cc1Cl` belongs -5.82%. As for `O=C(CN1CCc2ccccc2C1)c1ccc2cc[nH]c2c1`, the figure is 0.66%; as for `O=C(NC(=C(Cl)Cl)S(=O)(=O)c1ccc(Cl)cc1)c1ccc(Cl)cc1`, -1.84%. To `O=[N+]([O-])c1cccc(C2=NOc3cc(Br)ccc3N2)c1` belongs -4.66%. For `Clc1ccc(N2CCN(Cc3ccccc3)CC2)cc1`, the “% Inhibition @ 10 uM” value is on record as -3.65%. With `Cc1ccc(C2CCN(C(=S)NCC3CCCO3)C2)cc1` (stereo not shown), the “% Inhibition @ 10 uM” value is recorded as -0.971%. As to `CC1CCN(c2ccc3nnc(CCC(=O)NCCC4=CCCCC4)n3n2)CC1`, the “% Inhibition @ 10 uM” value is given as 0.257%. To `O=C1N=C(c2ccccc2)S/C1=C\c1ccccc1` belongs 3.96%; to `OCCCc1cn(-c2ccccc2)c2ccccc12`, 4.93%; to `CCOC(=O)c1c(C)[nH]c(C)c1S(=O)(=O)NCCN1CCOCC1`, -5.69%. For `Cc1cc(Br)ccc1OCC(=O)NC1CCCCC1`, the “% Inhibition @ 10 uM” value is -1.38%.

As to `O=C1S/C(=C\c2cccc(Cl)c2)C(=O)N1Cc1ccccc1`, the “% Inhibition @ 10 uM” value is -0.769%. As for `COc1ccc(CNC(=O)c2ccc3nc(N4CCOCC4)sc3c2)cc1`, the “% Inhibition @ 10 uM” value was 4.83%. On to `COc1ccc(NC(=O)c2ccc(NC(=O)C3CCCCC3)cc2)cc1`, for which the “% Inhibition @ 10 uM” value is on record as -2.84%. For `c1ccc(OCCCCN2CCOCC2)cc1`, the “% Inhibition @ 10 uM” value is -0.546%. To `Fc1ccc(C2=CCN(C3CCN(Cc4ccccc4)CC3)CC2)cc1` belongs -3.8%. To `CSc1nc(Oc2ccc(Cl)cc2)cc(-n2ncc(C#N)c2N)n1` belongs 0.751%; to `COc1ccc(OC)c(C2C(C#N)=C(N)Oc3[nH]nc(C)c32)c1` (stereo not shown), -2.56%.

Regarding `Cc1ccccc1Cn1c(=O)sc2ccccc21`, the “% Inhibition @ 10 uM” value amounted to 5.09%. To `C#CCSc1nc(-c2ccccc2)cc(C(F)(F)F)c1C#N` belongs -10.2%; to `Cc1cc2c(n1-c1ccc(C(=O)NCc3ccc4c(c3)OCO4)cc1)CCCC2`, 2.47%.

On to `COc1ccccc1NC(=O)C1=C(C)N=C2CCCC(O)=C2C1c1cc(OC)c(OC)c(OC)c1` (stereo not shown), for which the “% Inhibition @ 10 uM” value is recorded as -0.318%. As for `CN(C)/C=N/c1ccc2nn(-c3ccccc3)nc2c1`, the figure is 3%; as for `FC(F)Oc1ccc(-c2nn[nH]n2)cc1`, 1.76%.

As to `Cc1ccc2ccc(C3C(=O)c4ccccc4C3=O)nc2c1`, the “% Inhibition @ 10 uM” value is reported as -2.12%. As for `O=[N+]([O-])c1cccc(C2NCCc3[nH]cnc32)c1` (stereo not shown), the figure is -0.902%; as for `Cc1ccc(NC(=O)CN(c2ccccc2F)S(C)(=O)=O)c(C)c1`, 0.324%; as for `Cc1nn(C(F)F)c(C)c1C(=O)Nc1ccn(Cc2ccccc2)n1`, -5.81%. As for `O=S(=O)(Nc1cc(Cl)c(O)c(Cl)c1)c1ccc2ccccc2c1`, the figure is -4.02%; as for `Cc1ccc(NCN2C(=O)C3CCC(C)CC3C2=O)cc1Cl` (stereo not shown), 2.19%; as for `O=S(=O)(c1ccc(Cl)s1)N1CCN(c2cccc(Cl)c2)CC1`, -0.25%.

As to `Cc1nnc(N2C(=O)C(O)=C(C(=O)c3cccs3)C2c2cccc(Oc3ccccc3)c2)s1` (stereo not shown), the “% Inhibition @ 10 uM” value is listed as 42.3%. To `Cc1ccc(C2=NS(=O)(=O)N(C)C(C(=O)N3CCC4(CC3)OCCO4)=C2)cc1` belongs -6.83%; to `O=C(CSc1nc2cccnc2[nH]1)N1CCNC1=O`, 3.24%. To `CSc1ccc(/C=c2\sc3nc(=O)c(Cc4ccc(C)cc4)nn3c2=O)cc1` belongs -0.499%; to `CN(CC(=O)NCc1ccc2c(c1)OCO2)S(=O)(=O)c1ccc2[nH]c(-c3ccccc3)nc2c1`, -3.77%. As to `COc1cccc2cc(S(=O)(=O)c3ccc(Br)cc3)c(=O)oc12`, the “% Inhibition @ 10 uM” value was -3.1%. With `O=C1CC(c2ccco2)CC(=O)C1=CNCCN1CCNCC1` (stereo not shown), the “% Inhibition @ 10 uM” value was -0.864%. To `Cc1ccc2cc(C)c(Nc3ccc(C(=O)O)cc3)nc2c1` belongs -2.35%. To `CS(=O)(=O)c1ncc(Cl)c(C(=O)Nc2sc3c(c2C(=O)NCc2ccco2)CCCC3)n1` belongs 0.569%.
